The whole screen tested about 350,000 compounds, of which about 31,000 (8.9%) were called active. Inconclusive means that the source gave no clear call. Such entries were picked first, then a sample of the others. The call rests on the fitted dose curve; in most records, active means well fitted inhibition curve with a large enough effect; inconclusive means small, poorly fitted or top-dose-only effect; inactive means no such curve, though single readings can be large or run the other way. Potencies beside an inconclusive call are fits to weak or partial responses and may not hold up.
What follows are compounds tested against Histone-lysine N-methyltransferase EHMT2 (Homo sapiens) (UniProt Q96KQ7) (assay: qHTS Assay for Inhibitors of Histone Lysine Methyltransferase G9a). Details: G9a H3K9 monomethylation, AlphaScreen, 2 h; activity, negative = inhibition: at 59 µM (top of the series) unless noted.
Method in brief: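 Compounds were preincubated with 20 nM G9a for 15 min, after which biotinylated H3K9 peptide (500 nM) and SAM (20 uM) started a 2 h room-temperature reaction. Monomethylated product was quantified by antibody-based AlphaScreen chemiluminescence.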
Further: nearly all actives have a fitted effect of over 75% in size.
On the % scale 0 is the no-effect control and ±100 the full control effect; potency means the concentration at half of the fitted maximal effect; tags describe the fitted curve by direction and shape.

UniProt Q96KQ7, sequence (Q96KQ7 whole entry, looked up): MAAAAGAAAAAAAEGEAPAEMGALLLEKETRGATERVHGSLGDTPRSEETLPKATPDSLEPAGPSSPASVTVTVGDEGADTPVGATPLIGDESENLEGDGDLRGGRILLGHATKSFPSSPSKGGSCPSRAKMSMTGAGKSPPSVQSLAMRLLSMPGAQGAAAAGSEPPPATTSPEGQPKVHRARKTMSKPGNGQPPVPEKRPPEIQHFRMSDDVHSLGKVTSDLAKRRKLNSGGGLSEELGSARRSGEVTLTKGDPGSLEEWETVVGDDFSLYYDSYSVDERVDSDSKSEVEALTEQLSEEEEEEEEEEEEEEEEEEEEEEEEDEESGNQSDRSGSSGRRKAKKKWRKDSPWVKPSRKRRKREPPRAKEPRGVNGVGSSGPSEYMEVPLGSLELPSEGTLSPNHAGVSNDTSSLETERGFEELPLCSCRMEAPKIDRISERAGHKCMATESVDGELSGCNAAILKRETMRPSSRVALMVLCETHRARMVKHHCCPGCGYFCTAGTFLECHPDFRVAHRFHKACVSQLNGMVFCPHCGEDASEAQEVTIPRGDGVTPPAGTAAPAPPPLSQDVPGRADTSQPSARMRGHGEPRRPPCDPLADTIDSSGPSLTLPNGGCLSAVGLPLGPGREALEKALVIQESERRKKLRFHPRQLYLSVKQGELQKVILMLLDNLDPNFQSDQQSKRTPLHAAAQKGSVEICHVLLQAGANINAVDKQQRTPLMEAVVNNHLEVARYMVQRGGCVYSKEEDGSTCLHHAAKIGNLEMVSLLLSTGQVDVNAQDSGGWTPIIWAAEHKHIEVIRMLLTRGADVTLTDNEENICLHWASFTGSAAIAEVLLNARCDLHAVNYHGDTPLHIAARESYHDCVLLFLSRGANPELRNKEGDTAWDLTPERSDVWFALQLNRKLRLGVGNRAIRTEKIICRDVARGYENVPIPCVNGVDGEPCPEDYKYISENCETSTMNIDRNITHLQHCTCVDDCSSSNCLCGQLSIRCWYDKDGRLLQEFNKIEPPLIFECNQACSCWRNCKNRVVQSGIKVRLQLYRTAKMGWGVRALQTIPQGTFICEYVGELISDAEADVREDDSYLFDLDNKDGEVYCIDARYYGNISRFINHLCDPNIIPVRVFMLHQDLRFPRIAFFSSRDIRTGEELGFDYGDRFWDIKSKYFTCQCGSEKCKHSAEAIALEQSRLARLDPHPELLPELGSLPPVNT

SMILES	Potency	activity, negative = inhibition
COc1ccc(S(=O)(=O)N2CCCC(C(=O)Nc3cccnc3)C2)cc1Cl (stereo not drawn)	inconclusive: 39.8 µM [inhibitor, single point]	–
N#CC1=C(N)C(C#N)(C#N)C(c2cccnc2)C2COCC=C12 (stereo not drawn)	inconclusive: 79.4 µM [inhibitor, single point]	–
O=C(O)CCC1(c2ccccc2)NC(=O)NC1=O (stereo not drawn)	inconclusive: 79.4 µM [inhibitor, partial curve, poor fit]	–
O=C(NCc1cccnc1)NC1(C(F)(F)F)Oc2ccc(Cl)cc2O1 (stereo not drawn)	active: 31.6 µM	–
Cn1c(CCCNC(=O)c2cccs2)nc2ccccc21	inconclusive: 50.1 µM [inhibitor, partial curve, poor fit]	–
COc1ccc(-c2cc(C(F)(F)F)n3ncc(C(=O)O)c3n2)cc1OC	–	inactive: -37.7%
CCN(CC)c1ccc(-c2n[nH]c(=S)n2-c2ccccc2)cc1	active: 1.41 µM	–
O=C(CS(=O)(=O)c1cccc2nsnc12)Nc1cc(F)ccc1F	–	inactive: -1.99%
C=CCn1c(N)c(C(=O)OCC)sc1=S	–	inactive: -2.3% [at 12.7 µM]
COCCCNS(=O)(=O)c1cc2c3c(c1)C(C)C(=O)N3CCC2 (stereo not drawn)	–	inactive: 0.0902% [at 102 µM]
CCOc1cc(NC(=O)c2ccco2)c(OCC)cc1NC(=O)COc1ccccc1	inconclusive: 89.1 µM [inhibitor, single point]	–
COc1ccccc1-c1c(C)nn2c(N3CCN(c4ccccc4OC)CC3)cc(C)nc12	inconclusive: 89.1 µM [inhibitor, single point]	–
Cc1ccc(C)c(NC(=O)COC(=O)c2ccc3c(c2)OCCO3)c1	inconclusive: 0.1 µM [inhibitor, full curve, poor fit]	–
COc1ccccc1Oc1c(NS(=O)(=O)c2ccc(C(C)(C)C)cc2)nc(-c2ncccn2)nc1OCCO	–	inactive: 9.63% [at 12.7 µM]
COc1ccc(CNc2nc3nc(C)c(Cl)c(=O)n3[nH]2)cc1	active: 56.2 µM	–
CC(=O)c1ccc(N2CCN(C3CCC(C(C)(C)C)CC3)CC2)cc1 (stereo not drawn)	inconclusive: 1.58 µM [inhibitor, full curve]	–
CC(=O)Nc1ccc(-n2c(CCC(=O)O)ccc2-c2ccc(C)cc2)cc1	active: 14.1 µM	–
CCN(CC(=O)NCc1ccc(Cl)cc1)C(=O)CSCC(=O)Nc1ccc(C)cc1	inconclusive: 89.1 µM [inhibitor, single point]	–
CC(=O)Nc1ccc(S(=O)(=O)Nc2nc3ccc([N+](=O)[O-])cc3s2)cc1	active: 44.7 µM	–
Cc1cc(C)cc(OCC(=O)Nc2ccc(Cl)c(-c3nc4ncccc4o3)c2)c1	–	inactive: -1.74%
O=c1/c(=C\c2cccc(O)c2)sc2nc(-c3ccccc3)c(-c3ccccc3)n12	–	inconclusive: -92.6% [inhibitor]
COC(=O)c1ccccc1NC(=O)CSc1nc(O)c(-c2ccccc2)c(=O)[nH]1	–	inactive: -4.08%
Cc1cc(C(=O)Nc2ccc3ccccc3c2)c(C)o1	–	inactive: 4.2% [at 102 µM]
COc1ccc(NC(=O)Cc2c(F)c(F)c(F)c(F)c2F)cc1OC	–	inconclusive: -92.6% [inhibitor]
CCCC(C(=O)Nc1ccc(S(=O)(=O)N2CCCC2)cc1)c1ccccc1 (stereo not drawn)	inconclusive: 89.1 µM [inhibitor, single point]	–

SMILES	Potency	activity, negative = inhibition
Cc1nonc1NC(=O)CSc1nnc(-c2ccoc2C)n1CC(C)C	inconclusive: 50.1 µM [inhibitor, partial curve]	–
Cc1cn(-c2ccccc2)c(C)c1/C=N\Nc1nc(N2CCOCC2)nc(N2CCOCC2)n1	inconclusive: 50.1 µM [inhibitor, partial curve]	–
N#C/C(=C\c1ccccc1)C(=O)Nc1sc2c(c1C(N)=O)CCC2	–	inactive: -3.58%
COc1ccc(OC)c(Nc2cc(C)nc3ccccc23)c1	inconclusive: 50.1 µM [inhibitor, partial curve, poor fit]	–
CCOC(=O)c1nc(C)[nH]c1C(=O)OCC	–	inconclusive: -93% [inhibitor]
COc1ccc(NC2=Nc3cccc4cccc2c34)cc1	inconclusive: 31.6 µM [inhibitor, single point]	–
COc1ccc(S(=O)(=O)Nc2ccc(-c3ccc4nncn4n3)cc2)c(OC)c1	active: 10 µM	–
N#CCCSc1ncnc2c1oc1ccccc12	inconclusive: 70.8 µM [inhibitor, single point]	–
CCOCCn1c(SC)nc2c1c(=O)[nH]c(=O)n2C	inconclusive: 3.55 µM [inhibitor, single point]	–
Nn1c(Cc2ccccc2F)n[nH]c1=S	active: 20 µM	–
CC(=O)N1CCC(N(CCN2CCOCC2)C(=S)Nc2ccc(C)cc2)CC1	inconclusive: 22.4 µM [inhibitor, single point]	–
CC(C(=O)NC1CCCC1)N(C(=O)c1ccc(-c2ccccc2)[nH]1)c1ccccc1F (stereo not drawn)	–	inactive: -0.865%
NC(=O)C1CCN(C(=O)COc2ccc(S(=O)(=O)NC3CCCC3)cc2)CC1	inconclusive: 56.2 µM [inhibitor, partial curve, poor fit]	–
COc1ccc(NC(=O)CN(C)C(=O)c2n[nH]c3ccccc23)cc1	–	inactive: -20.6% [at 102 µM]
O=C(CN(c1ccc(F)cc1)S(=O)(=O)c1ccccc1)Nc1ccccc1C(=O)O	inconclusive: 56.2 µM [inhibitor, partial curve, poor fit]	–
CC[n+]1c(/C=C2\C=C(C)CC(C)(C)C2)sc2ccccc21	inconclusive: 8.91 µM [inhibitor, partial curve, poor fit]	–
Cc1cc2nc(-c3ccc(Br)cc3)cc(C(F)(F)F)n2n1	–	inactive: 10.6%
CCc1nc2c(sc3nc4c(cc32)COC(C)(C)C4)c(=O)n1Cc1ccco1	inconclusive: 2 µM [inhibitor, partial curve, poor fit]	–
COc1cc(-c2c(C#N)c(N)nc3c2CCCC3)ccc1O	–	inactive: -32.6% [at 102 µM]
O=C(Cc1cccs1)Nc1ccccn1	inconclusive: 25.1 µM [inhibitor, single point]	–
Nc1nc(NCc2ccco2)nc(N2CCCCCC2)c1[N+](=O)[O-]	inconclusive: 39.8 µM [inhibitor, single point]	–
O=C(CSc1ncccc1C(=O)O)NCCC1=CCCCC1	inconclusive: 50.1 µM [inhibitor, partial curve, poor fit]	–
Cc1cc(C)cc(-n2ccnc2SCC(=O)Nc2ccc3c(c2)OCO3)c1	active: 20 µM	–
CC1=Nc2cccc3cccc(c23)N1	active: 25.1 µM	–
CC(C)Cn1c(SCC(=O)Nc2ccc3[nH]c(=O)[nH]c3c2)nc2ccccc2c1=O	inconclusive: 89.1 µM [inhibitor, partial curve, poor fit]	–

SMILES	Potency	activity, negative = inhibition
CCOC(=O)/C(=N/Nc1ccccc1)c1csc(Nc2ccccc2)n1	inconclusive: 70.8 µM [inhibitor, partial curve, poor fit]	–
Cc1nnc2c(N3CCN(c4ccccc4)CC3)nc3ccc(C(=O)c4ccccc4)cc3n12	–	inactive: -2.96%
O=C(Cc1ccsc1)NNC(=O)c1ccccc1O	–	inactive: -4.44% [at 102 µM]
CC(C)CNC(=O)CCCSc1nc2ccccc2[nH]1	–	inactive: -4.86% [at 102 µM]
O=C(CN1CCN(c2ccccc2)CC1)Nc1ccc2c(c1)CCC2	inconclusive: 28.2 µM [inhibitor, single point]	–
CCN(CC)CCCNC(=O)c1cn(CC)c2cc(N3CCN(C(=O)c4ccco4)CC3)c(F)cc2c1=O	inconclusive: 50.1 µM [inhibitor, single point]	–
Cn1nnnc1SCCNCc1ccccc1OCc1ccc(Cl)cc1	inconclusive: 28.2 µM [inhibitor, partial curve, poor fit]	–
NNc1nc2ccccc2nc1C(F)(F)F	active: 8.91 µM	–
COc1cccc(NC(=O)CN2C(=O)NC3(CCCC3)C2=O)c1	inconclusive: 89.1 µM [inhibitor, single point]	–
COc1ccc(-c2c3c(=O)n(C)c(=O)n(C)c3cn2NC(C)=O)cc1	–	inconclusive: -83.9% [inhibitor]
O=C(N1CCOCC1)C(F)(F)C(F)(F)C(F)(F)C(F)(F)C(=O)N1CCOCC1	inconclusive: 35.5 µM [inhibitor, single point]	–
CC(=O)C1=C(O)C(=O)N(Cc2ccccc2)C1c1cccs1 (stereo not drawn)	active: 44.7 µM	–
O=S(=O)(Nc1ccc2c(c1)OCCO2)c1cccc2cccnc12	inconclusive: 50.1 µM [inhibitor, partial curve]	–
Cc1ccc(NNC(=O)c2ccno2)cc1Cl	active: 8.91 µM	–
O=C1C2C3C=CC(CNS(=O)(=O)c4ccccc4)(O3)C2C(=O)N1c1ccc(Cl)cc1 (stereo not drawn)	active: 1 µM	–
Cn1c(=O)c2c(nc(SCC(=O)O)n2Cc2cc3c(cc2Cl)OCO3)n(C)c1=O	inconclusive: 2.24 µM [inhibitor, full curve, poor fit]	–
CCOc1ccccc1N=c1oc2cc(O)ccc2cc1C(=O)NCC1CCCO1 (stereo not drawn)	inconclusive: 22.4 µM [inhibitor, partial curve, poor fit]	–
N#Cc1c(NC(=O)c2ccc(Br)o2)n(-c2ccccc2)c2nc3ccccc3nc12	–	inactive: -10.7% [at 12.7 µM]
CC(Oc1ccccc1)C(=O)OCC(=O)NC(=O)NCc1ccco1 (stereo not drawn)	inconclusive: 50.1 µM [inhibitor, partial curve, poor fit]	–
Cc1cc(C(=O)COC(=O)CNC(=O)c2ccco2)c(C)n1Cc1ccco1	inconclusive: 35.5 µM [inhibitor, single point]	–
COc1cc(/C=C/C(=O)c2ccc(O)cc2)ccc1OCC#N	–	inactive: -12.6%
NS(=O)(=O)c1ccc(CNS(=O)(=O)c2ccc(Cl)nc2)cc1	active: 56.2 µM	–
O=C(Nc1ccc(Cl)cc1)OCc1cc(-c2ccccc2)on1	inconclusive: 22.4 µM [inhibitor, single point]	–
